Structures are written as SMILES. The list shows a part of the results. The main result of the screen is listed elsewhere. These columns were measured beside it and carry no call. Most of these compounds were active or inconclusive in the main read-out, so they are no random draw.

This assay in a line: qHTS Assay for Lipid Storage Modulators (AID 1519). The note with it: Drosophila S3 cells, BODIPY lipid droplet/cell ratio, laser cytometry; measured here: lipid channel max response; cells loaded with oleic acid. A digest of the protocol: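 Cells seeded at 5,000 per well were treated with compounds over a concentration series and loaded with oleic acid (400 uM, as added). Lipid droplet fluorescence (488 nm excitation, 500-530 nm channel) was read by laser-scanning cytometry and normalized to 20 uM Triacsin C.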
Background: qHTS replaces the single test concentration by a dilution series.
`COCCn1c(=O)c(-c2ccc(Cl)cc2)nc2cnc(Oc3ccc(OC)cc3)nc21`: the max response was -37.1%. The value for `O=C(c1cccc(F)c1)N1CCC2(CC1)CCN(c1ccccn1)CC2` was 18.9%; that for `Cc1ccccc1-c1nc(NC2CCNCC2)c2ccccc2n1` was 36.5%; that for `CC(=O)NCCNc1ncncc1-c1ccccc1CN(C)C` was 30.2%. The value for `O=c1c(-c2cccc(Cl)c2)nc2cncnc2n1Cc1ccccc1Cl` was 29%. The value for `CN(C)C(=O)c1ccc(-c2ccc3ncnc(N4CCOCC4)c3c2)cc1` was 12.5%; that for `COc1ccc(-n2c(=O)cnc3cnc(Oc4cccc(Cl)c4)nc32)cc1` was 27.8%; that for `COc1cccc(Nc2ncc3nc(-c4ccc(Cl)cc4)c(=O)n(C[C@H]4CCCO4)c3n2)c1` was -41.8%. On to `NC(Cc1cc(I)c(Oc2cc(I)c(O)c(I)c2)c(I)c1)C(=O)O` (stereo not given), for which the max response was determined as 33.1%. `C[C@]12CCC3c4ccc(O)cc4CCC3C1CCC2OC(=O)CCC1CCCC1` (stereo not given in full): the max response is -46.8%. The value for `CN1CCN(c2ccnc(-c3cccnc3)n2)CC1` was 33.1%; that for `N#Cc1ccc(CN2CCCC3(CCN(C(=O)c4cnccn4)CC3)C2)cc1` was 33.1%; that for `O=C(c1ccncc1)N1CCC2(CCCN(c3ncccn3)C2)CC1` was 29.4%. The value for `CCN(CC)CC(=O)Nc1c(C)cccc1C` was 31.5%; that for `Nc1nc(/C(=C/CC(=O)O)C(=O)NC2C(=O)N3C(C(=O)O)=CCSC23)cs1` (stereo not given) was 40%; that for `CN(C)c1ncc2nc(-c3cc(F)cc(F)c3)c(=O)n(Cc3cccs3)c2n1` was 20.9%. Then `Cc1nc2cnc(N3CCOCC3)nc2n(CCc2ccccc2)c1=O`, with -0.317%; and `O=C(Nc1cccc(F)c1)N1CCCC2(CCN(C(=O)c3cccc(F)c3)CC2)C1`, with 30.8%.

As for `COc1cccc(-c2cncnc2NCc2cccc(C)c2)c1`, the max response was 27.3%.

On to `O=C(c1cnccn1)N1CCC2(CC1)CCN(c1ccccn1)CC2`, for which the max response amounted to 34.2%. In the case of `CN(C)C(=O)c1ccc(-c2ccc3ncnc(NCc4ccccc4)c3c2)cc1`, the max response was 22.8%. Then `c1cncc(CNc2ncncc2-c2ccoc2)c1`, with 30.7%.

With `CN(C)c1ncc2nc(-c3cc(F)cc(F)c3)c(=O)n(Cc3ccc(F)cc3)c2n1`, the max response was found to be 30.7%. Then `FC(F)(F)c1ccccc1-c1cncnc1NCc1cccs1`, with 23%; and `COc1cccc(Nc2ncc3nc(CCc4ccccc4)c(=O)n(Cc4cccs4)c3n2)c1`, with 29.2%; and `CC(C)(C)c1ccc([C@@H](O)CCCN2CCC(C(O)(c3ccccc3)c3ccccc3)CC2)cc1`, with -54.2%.

In the case of `COc1cccc(Cn2c(=O)c(-c3cccs3)nc3cnc(N4CCNCC4)nc32)c1`, the max response was determined as 13.3%. Then `COc1ncc2nc(CCc3ccccc3)c(=O)n(Cc3cccs3)c2n1`, with 23.2%; and `O=C(c1ccco1)N1CCC2(CCCN(Cc3ccccc3)C2)CC1`, with 32.8%; and `O=c1c(-c2ccc(F)cc2)nc2cncnc2n1C1CC1`, with 30.2%. On to `N#CCCn1c(=O)cnc2cnc(Oc3cccc(Cl)c3)nc21`, for which the max response is 31%. The value for `O=C(c1cnccn1)N1CCC[C@@]2(CCN(c3cccc(-c4ccccc4)c3)C2)C1` was 7.93%; that for `CCCCCCCCCCCCCCCCCCc1ccc(C(=O)/C=C\C(=O)O)cc1` was -10.2%; that for `CC(=O)Oc1c(-c2ccccc2)oc2c(CC=C(C)C)c3c(c(OC(C)=O)c2c1=O)C=CC(C)(C)O3` was 20.7%. As to `COc1ccc(Oc2ncc3nc(-c4cccs4)c(=O)n(C)c3n2)cc1`, the max response was -28.9%. The value for `COCC(=O)N1CCC2(CC1)CN(Cc1ccccc1OC)C2` was 38.8%; that for `O=C1C=CC(=C(c2ccc(O)cc2)c2ccc(O)cc2)C=C1` was -47.3%; that for `C=C1c2cccc(O)c2C(O)=C2C(=O)[C@]3(O)C(O)=C(C(N)=O)C(=O)C(N(C)C)C3C(O)C12` (stereo not given in full) was 48.7%. The value for `O=c1c(-c2ccc(F)cc2)nc2cncnc2n1-c1ccccc1` was 28.5%; that for `O=C(Nc1ccccc1)N1CCC2(CC1)CCN(C(=O)c1cccc(F)c1)CC2` was 22.3%.

For the origin of these results see PubChem BioAssay (NCATS).
